Results: article PMC4336329 (PLoS ONE, 2015)
The whole screen tested about 310,000 compounds, of which about 2,200 (0.71%) showed an effect of 50% or more. The effect is printed as a negative number. The list shows a part of the results.

Target: human ether-à-go-go-related gene (hERG) potassium channel (human, UniProt Q12809)
Assay: primary screen, population patch clamp on CHO cells stably expressing hERG

human ether-à-go-go-related gene (hERG) potassium channel, sequence (Q12809 whole entry, looked up): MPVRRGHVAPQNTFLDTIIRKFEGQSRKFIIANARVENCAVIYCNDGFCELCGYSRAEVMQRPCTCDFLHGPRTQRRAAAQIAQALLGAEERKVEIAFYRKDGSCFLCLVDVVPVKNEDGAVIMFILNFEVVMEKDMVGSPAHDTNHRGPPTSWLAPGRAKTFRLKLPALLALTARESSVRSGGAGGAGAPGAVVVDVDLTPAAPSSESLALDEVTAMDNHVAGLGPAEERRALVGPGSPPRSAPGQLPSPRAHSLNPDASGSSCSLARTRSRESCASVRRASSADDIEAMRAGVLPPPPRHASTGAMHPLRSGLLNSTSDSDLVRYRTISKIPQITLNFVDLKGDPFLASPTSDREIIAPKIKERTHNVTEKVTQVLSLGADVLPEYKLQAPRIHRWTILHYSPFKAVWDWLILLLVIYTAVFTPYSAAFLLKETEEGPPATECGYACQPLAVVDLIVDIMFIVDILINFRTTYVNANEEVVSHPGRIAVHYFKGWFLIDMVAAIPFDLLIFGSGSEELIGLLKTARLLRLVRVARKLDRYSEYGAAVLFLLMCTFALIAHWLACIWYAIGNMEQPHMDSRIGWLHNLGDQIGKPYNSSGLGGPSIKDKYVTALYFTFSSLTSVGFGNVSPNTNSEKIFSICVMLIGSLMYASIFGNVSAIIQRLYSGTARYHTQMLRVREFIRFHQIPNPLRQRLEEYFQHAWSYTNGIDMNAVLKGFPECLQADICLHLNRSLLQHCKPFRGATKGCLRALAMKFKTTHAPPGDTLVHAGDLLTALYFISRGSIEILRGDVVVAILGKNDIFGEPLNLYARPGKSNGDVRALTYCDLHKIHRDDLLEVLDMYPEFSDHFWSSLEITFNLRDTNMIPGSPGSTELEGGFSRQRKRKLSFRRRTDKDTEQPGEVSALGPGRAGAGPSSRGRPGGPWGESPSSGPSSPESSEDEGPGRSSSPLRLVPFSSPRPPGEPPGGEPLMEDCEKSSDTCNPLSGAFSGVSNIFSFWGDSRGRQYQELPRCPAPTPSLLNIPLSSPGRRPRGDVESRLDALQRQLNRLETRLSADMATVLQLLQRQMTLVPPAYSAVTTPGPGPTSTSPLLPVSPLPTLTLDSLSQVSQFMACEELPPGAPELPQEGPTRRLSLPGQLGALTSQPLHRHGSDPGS

Row | SMILES | hERG current change (%, negative = inhibition) at 1uM
1 | Cc1nc(=O)c(-c2ccccc2)c(C)n1-c1cccc(/C=C/C(=O)O)c1 | 16.2%
2 | CCCCN1CC[C@H]2C=CC[C@@H](C(=O)N3CCN(c4ccccc4)CC3)[C@H]2C1=O | 16.5%
3 | Cc1ccc(C(=O)CCNc2ccc(F)c(Cl)c2)o1 | -1.26%
4 | CC12CN(NC(=O)c3ccccc3F)C3(C#N)CC1CCC23C (stereo not drawn) | 1.67%
5 | CCOc1ccc(/C=C(\C#N)C(=O)Nc2cccnc2)cc1 | -0.124%
6 | CC1CC1C(=O)Nc1nc(-c2cccs2)c(-c2cccs2)s1 (stereo not drawn) | 7.23%
7 | Nc1nc(/C=C/c2ccc(F)cc2)nc(-c2ccccc2O)n1 | 12.5%
8 | COc1ccc(C(=O)Nc2nc3ccccc3[nH]2)cc1S(=O)(=O)N1CCCC1 | 6.81%
9 | Cc1nn(C)c(Cl)c1CN1CCC(CO)(CC2CCCCO2)CC1 (stereo not drawn) | 10.3%
10 | COc1ccc(-c2cc(C(F)(F)F)c(C#N)c(SCC(=O)Nc3ccccc3C#N)n2)cc1 | 6.2%
11 | N=c1c(C(=O)NCC2CCCO2)cc2c(=O)n3ccccc3nc2n1Cc1ccccc1Cl (stereo not drawn) | -46.8%
12 | CC1=C(C#N)C(C)C2=C(CC(C)(C)CC2=O)N1 (stereo not drawn) | 1.86%
13 | COc1cc(/C=N/NC(=O)c2cccc(S(=O)(=O)N3CCCCC3)c2)cc(Br)c1O | 5.94%
14 | COc1ccc(C2=C(SC)CC2=NC(C)(C)C)cc1 | 5.34%
15 | CCCCC(=O)Nc1cccc(C(C)O)c1 (stereo not drawn) | 14.2%
16 | CC(=O)c1ccc(N2CCN(C(=O)c3n[nH]c4ccccc34)CC2)cc1 | -12.3%
17 | CC(C)(CNC(=O)c1cc2c(s1)CCCC2)N1CCOCC1 | -2.05%
18 | O=C(Nc1ccc(S(=O)(=O)N2CCOCC2)cc1)C1CCCCC1 | -3.69%
19 | CN(C)CCNC(=O)Cn1ccc2cc(S(=O)(=O)N3CCCCCC3)ccc21 | 7.01%
20 | CCC1CCCCN1C(=O)CCNS(=O)(=O)c1ccc2c(c1)oc(=O)n2C (stereo not drawn) | 2.86%
21 | Cc1cc(C)c(S(=O)(=O)c2ccccc2)c(Cl)n1 | 7.58%
22 | Cc1cccc(S(=O)(=O)Nc2ccc(-c3nc4ccc(C)cc4s3)cc2)c1 | 14.8%
23 | CC(C)Oc1cccc(C(=O)C2CCCN(C(=O)c3ccoc3)C2)c1 (stereo not drawn) | 5.95%

Row | SMILES | hERG current change (%, negative = inhibition) at 1uM
24 | Cc1ccc(NC(=O)COC(=O)C2(c3ccc(Cl)cc3)CCCC2)cc1 | 24.7%
25 | COc1ccc(-c2ccnc(SCC(=O)N3CCOCC3)n2)cc1 | 8.48%
26 | Cc1c(C(=O)N/N=C/c2cccnc2)sc(=S)n1C | -1.96%
27 | NC(=O)c1cc(S(=O)(=O)NCCc2ccc(Cl)cc2)cs1 | 17%
28 | CC(C)(C)c1ccccc1OCCCCCn1ccnc1 | 2.81%
29 | O=S(=O)(Nc1ccc(S(=O)(=O)N2CCCC2)cc1)c1ccccc1Br | 9.25%
30 | Cc1cc(C)c2cc(CN(CCN(C)C)C(=O)Nc3ccccc3Cl)c(=O)[nH]c2c1 | -7.07%
31 | CC(C)(C)c1ccc(C(=O)NC(=S)NCc2cccnc2)cc1 | 12%
32 | COc1cc(/C=N/NC(=O)CNC(=O)c2ccncc2)ccc1OC(C)=O | 2.71%
33 | O=C(NCCCN1CCCC1=O)c1ccc2c(c1)OCO2 | 11.3%
34 | O=C(COc1cccc2ccccc12)N1CCN(c2ccccn2)CC1 | -9.04%
35 | CCOc1ccc(-c2noc(CCC(=O)O)n2)cc1 | 0.837%
36 | Cc1cc(C(C)(C)C)cc(C)c1S(=O)(=O)N1CC(=O)Nc2ccccc21 | 19.5%
37 | COc1ccc(C(=O)N/N=C2\CCc3ccccc32)cc1OC | 8.38%
38 | Cc1cc(C)n(-c2nnc(N3CCN(c4ccccc4)CC3)nn2)n1 | 4.59%
39 | Cc1cc(Br)cc(C)c1NC(=S)NC(=O)CC(C)C | 9.22%
40 | CC(C)(C)c1[nH]nc2c1C(c1ccsc1)C(C#N)=C(N)O2 (stereo not drawn) | 16.8%
41 | COc1ccc(OC)c(NC(=O)C2CC(=O)N(CCc3ccccc3)C2)c1 (stereo not drawn) | 3.44%
42 | CCOc1cccc(NC(=O)CSc2sc3c(O)cc(=O)[nH]c3c2C#N)c1 | 17.5%
43 | COc1ccc(CCC(=O)OCC(=O)c2c(N)n(CC(C)C)c(=O)n(C)c2=O)cc1 | -4.89%
44 | O=C(CC(=O)Nc1ccc(Cl)cc1)N/N=C\c1cccc(F)c1 | 14.6%
45 | Cc1ccc2nc(C(F)OC(F)(F)F)[nH]c2c1 (stereo not drawn) | 8.11%
46 | NC(=O)C1CCN(C(=O)COc2cccc3ccccc23)CC1 | 2.49%

Row | SMILES | hERG current change (%, negative = inhibition) at 1uM
47 | NS(=O)(=O)c1ccc(CCNC(=O)COC(=O)CC(c2ccccc2)c2ccccc2)cc1 | -1.77%
48 | O=C(O)CSc1c(O)c2ccccc2[nH]c1=O | -1.64%
49 | COc1ccc(C(=O)O/N=C(\C)c2ccccc2)cc1 | 7.2%
50 | CC(Cc1ccccc1)NC(=O)C1CCCNC1=O (stereo not drawn) | 10.4%
51 | O=C(Cn1cnc2c(cnn2-c2ccc(F)cc2)c1=O)OCc1ccccc1 | 9.47%
52 | O=C(Nc1nnc(SCc2c(Cl)cccc2Cl)s1)c1cccc([N+](=O)[O-])c1 | 14.6%
53 | COc1ccc(C(CNC(=O)C2CC(=O)N(Cc3ccccc3)C2)N2CCOCC2)cc1 (stereo not drawn) | -1.54%
54 | Cc1ccc(CC(=O)Nc2nnc(-c3ccc(F)cc3)o2)c(C)c1 | 7.33%
55 | Cc1ccc(CCNC(=O)C2CCCN(S(=O)(=O)c3c(C)noc3C)C2)cc1 (stereo not drawn) | 8.68%
56 | O=C(Nc1ccccc1)N1CCCC(CNS(=O)(=O)Cc2ccccc2)C1 (stereo not drawn) | -18.6%
57 | O=C(c1cc(Cl)nc2ccccc12)N1CCN(S(=O)(=O)c2cccc(C(F)(F)F)c2)CC1 | 20.3%
58 | COC(=O)c1cc2sc(Cl)cc2n1CC(=O)Nc1cccc(SC)c1 | 6.79%
59 | CCN1CCN(c2ncc(C(=O)Nc3c(F)cc(F)cc3Br)c3ccccc23)CC1 | -17.7%
60 | Cc1cc(Br)ccc1NC(=O)c1cnc(N2CCN(c3ccccn3)CC2)c2ccccc12 | 12.1%
61 | Cc1ccc(NC(=O)COC(=O)c2ccnn2C)cc1 | 16.5%
62 | O=C(NCCc1ccc(Cl)cc1)C1(c2ccccc2)CC1 | 6.62%
63 | COc1cc2c(cc1NC(=O)c1cccnc1)oc1ccccc12 | 8.74%
64 | CCN(CC(=O)NCc1cccs1)C(=O)c1cc(S(=O)(=O)N2CCCCC2)ccc1Cl | -3.26%
65 | COc1ccc(C)cc1NC(=O)c1ccc2c(SCC(=O)O)c3c(nc2c1)CCCC3 | 13.9%
66 | CCn1cc(C(=O)N(C)c2ccc(OC)cc2)c2cc(OC)c(OC)cc2c1=O | 11.9%
67 | COc1ccc(/C=C/C(=O)NC(=S)N2CCN(c3ccccc3OC)CC2)cc1 | 11.5%
68 | NC(=O)c1nnsc1-c1ccc(-c2snnc2C(N)=O)cc1 | 12.2%
69 | COc1ccc(C(=O)Nc2nc3ccccc3[nH]2)cc1 | 20.6%

Row | SMILES | hERG current change (%, negative = inhibition) at 1uM
70 | COc1ccccc1OCCNC(=O)c1cc(=O)[nH]c2ccccc12 | 0.367%
71 | CCOc1ccc(S(=O)(=O)N2CCOCC2)cc1NC(=O)CSCC(=O)Nc1ccc(C)cc1 | -9.03%
72 | CC(=O)N/N=C/c1c(C)[nH]n(-c2ccccc2)c1=O | 15.1%
73 | CC(C)n1c(SCC(=O)Nc2ccc(N3CCOCC3)cc2)nnc1-c1ccco1 | 12.2%
74 | COc1ccc(-c2nn(CCC(=O)O)cc2CCC(=O)O)cc1 | 16.2%
75 | CCOC(=O)C1(CCOC)CCN(Cc2cccc(OCc3ccccc3)c2)CC1 | 3.99%
76 | O=C(N/N=C/C(Br)=C\c1ccccc1)c1ccco1 | 12.6%
77 | CCOc1ccc(OCC)c(S(=O)(=O)NNC(=O)c2c(C)nc3ccccn23)c1 | 5.91%
78 | CSc1ccc(CN2CCN(CC=C(C)C)C(CCO)C2)cc1 (stereo not drawn) | 3.67%
79 | COc1ccc(NC(=S)NC(=O)c2cc3ccccc3o2)c(OC)c1 | 17.2%
80 | COc1ccc(-c2c(C)nn3c(N)c(-c4ccccc4)cnc23)cc1OC | 12.8%
81 | O=C(OCCN1CCOCC1)c1cccnc1 | -14.6%
82 | COc1ccc(S(=O)(=O)N(C)C)cc1NCC(=O)Nc1cccc(C#N)c1 | 6.73%
83 | CCCn1nc(NC(=O)CC(C)C)c2cc3cccc(C)c3nc21 | 13.4%
84 | CSc1nnc(-c2sccc2OCc2ccc(C)cc2)n1C | 6.59%
85 | CCN1CCN(c2ccc(S(=O)(=O)N3CCCCC3)cc2NC(=O)c2cccc(F)c2)CC1 | -2.83%
86 | Fc1cc(Br)ccc1COc1ccc(-c2nnco2)cc1 | 13.5%
87 | Cc1ccc(C)c(OCCCC(C)(C)C(=O)O)c1 | 13.7%
88 | Cc1ccc(CSCCNS(=O)(=O)c2ccc(C)cc2)cc1 | 6.26%
89 | COCC(C)NC(=O)c1ccc(-n2nc(C(F)(F)F)cc2-c2cccs2)cc1 (stereo not drawn) | 15.5%
90 | COc1cc(CNC(=O)c2cc3ccccc3oc2=O)cc(OC)c1OC | 15.2%
